PubChem BioAssay AID504466 (National Center for Advancing Translational Sciences (NCATS), 2011)
Among all 330,000 compounds or so, about 4,200 (1.3%) were called active. The inconclusive results got no clear call from the source; some entries with a clear call stand among them for comparison. Calls follow the shape of the dose curve; as a rule, active = well fitted activation curve with a large enough effect; inconclusive = small, poorly fitted or top-dose-only effect; inactive = no such curve, though single readings can be large or run the other way. A potency beside an inconclusive call is a rough fit, not a confirmed value.

Assay: qHTS screen for small molecules that induce genotoxicity in human embryonic kidney (HEK293T) cells expressing luciferase-tagged ELG1; also: nearly all actives have a fitted effect of over 60% in size; as to activity change, positive = activation: % of control where 0% means no effect
Details: HEK293T ELG1-luciferase reporter, luminescence, 16 h; series mostly up to 46 µM; activity change, positive = activation: at the top concentration
In short: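 HEK293T cells expressing luciferase-tagged ELG1 were exposed to compound or DMSO vehicle for 16 hr at 37 °C and 5% CO2. Luciferase activity was then measured with ONE-Glo after 30 min at room temperature.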
Potency is read from the fitted curve at half-maximal effect; tags tell the direction and shape of the fitted curve.

| SMILES | Potency | activity change, positive = activation |
| --- | --- | --- |
| CC1(C)OC(=O)C(=Cc2ccc(-c3ccc(S(N)(=O)=O)cc3)o2)C(=O)O1 | inconclusive: 29.1 µM [activator, single point] |  |
| O=C(OCC(=O)N1CCOCC1)c1cccc(F)c1 | inconclusive: 16.4 µM [activator, single point] |  |
| Cc1cnc(Nc2nc3ccccc3o2)nc1C(=O)Nc1cccc(C(F)(F)F)c1 | inconclusive: 10 µM [activator, partial curve, poor fit] |  |
| Cc1ccc2cc(NC(=O)c3cccc(F)c3)ccc2n1 | active: 2.59 µM |  |
| O=C(CSc1ncnc2sc3c(c12)CCCC3)c1ccco1 |  | inactive: -0.175% |
| Cc1ccc(-c2nn(-c3ccccc3)cc2/C=N/NC(=O)c2ccncc2)o1 | inconclusive: 4.11 µM [activator, single point] |  |
| COc1ccc(OC)c(Nc2nc(N)nc(CSc3nnc(N)s3)n2)c1 | inconclusive: 29.1 µM [activator, partial curve, poor fit] |  |
| Cc1ccc(S(=O)(=O)NNC(=O)c2cnn(-c3ccccc3)c2-n2cccc2)cc1 |  | inactive: -3.58% |
| CCOc1ccc(NC(=O)CSc2nnc(Cn3cnc([N+](=O)[O-])n3)n2CC)cc1 | inconclusive: 2.91 µM [activator, single point] |  |
| Cc1cc(NC(=O)COc2ccccc2C#N)no1 | inconclusive: 9.2 µM [activator, partial curve, poor fit] |  |
| O=C(Nc1nnc(C2CC2)s1)c1ccc(Cl)nc1 | inconclusive: 13 µM [activator, partial curve, poor fit] |  |
| COc1cc(/C=C/[N+](=O)[O-])ccc1OCc1cccc(C(=O)O)c1 | inconclusive: 0.291 µM [activator, partial curve] |  |
| Cc1cc(C(=O)Nc2ccc3c(c2)OCCO3)co1 | inconclusive: 3.66 µM [activator, full curve] |  |
| Cc1ccc(C(=O)Nc2ccc(N3CCOCC3)cc2)cc1 | active: 20.6 µM |  |
| CCCc1cc(=O)n2[nH]c(NCc3c(Cl)cccc3Cl)nc2n1 |  | inactive: -0.394% |
| COc1cccc(CC(NC(C)=O)C(=O)NC2CCN(C(=O)Nc3ccc(C)cc3)CC2)c1 (stereo not drawn) |  | inactive: -1.6% |
| COc1ccc(C2C(C#N)=C(N)Oc3c2ccc2cccnc32)cc1OC (stereo not drawn) | inconclusive: 20.6 µM [activator, single point] |  |
| Cc1nc2ccc(S(=O)(=O)Nc3cc(-c4nc5cccnc5s4)ccc3C)cc2s1 | inconclusive: 2.59 µM [activator, full curve, poor fit] |  |
| COc1ccc(C2=NOC(CN3C(=O)c4ccccc4S3(=O)=O)C2)cc1 (stereo not drawn) | inconclusive: 0.092 µM [activator, partial curve, poor fit] |  |
| O=C(/C=C/c1ccc(-c2cccc([N+](=O)[O-])c2)o1)N1CCOCC1 | inconclusive: 9.2 µM [activator, partial curve, poor fit] |  |
| Cc1nc(CCNC(=O)c2ccccc2)cs1 | inconclusive: 11.6 µM [activator, partial curve, poor fit] |  |
| Cc1c(CC(=O)Nc2ccc(Cl)cc2)sc2ccc(Cl)cc12 |  | inactive: -0.987% |
| C/C(=N\O)c1sc(-c2ccccc2)nc1C | inconclusive: 3.26 µM [activator, full curve, poor fit] |  |
| O=C(Nc1cc(C(=O)Nc2ccccc2C(=O)O)cc(C(=O)Nc2ccccc2C(=O)O)c1)c1ccccc1 |  | inactive: 23% |

| SMILES | Potency | activity change, positive = activation |
| --- | --- | --- |
| CCc1ccc2oc(C(=O)Nc3nonc3C)c(C)c2c1 | active: 3.26 µM |  |
| C=CCc1ccc(OCC(O)COCC)c(OC)c1 (stereo not drawn) | active: 18.4 µM |  |
| CCN(CC)CCn1c(SCC(=O)Nc2ccc3c(c2)CCC3)nc2ccccc2c1=O | inconclusive: 20.6 µM [activator, partial curve, poor fit] |  |
| C=CCn1c(SCC(=O)NCCc2ccccc2)nc2c([nH]c3ccccc32)c1=O | inconclusive: 18.3 µM [activator, single point] |  |
| Cc1ccc(NC(=O)c2cnn(-c3ccccc3)c2C)cc1 | active: 1.46 µM |  |
| O=C(CNC(=O)c1ccco1)Nc1ccncc1 |  | inactive: 3.45% |
| O=C(N/N=C/c1ccc(Cl)cc1)C(=O)N1CCCCCC1 |  | inactive: 1.41% |
| c1ccc(COc2cccc(CN3CCc4ccccc4C3)c2)cc1 |  | inactive: -2.72% |
| O=C(Nc1ccc(N2CCOCC2)cc1)c1nc2ccccc2s1 | inconclusive: 0.326 µM [activator, full curve] |  |
| NCCOc1ccccc1-c1ccccc1 |  | inactive: 0.155% |
| O=C(NC1CCCCC1)c1cc(-c2ccc(O)cc2)on1 | inconclusive: 4.61 µM [activator, full curve] |  |
| c1ccc(-c2csc(NC3=NCCCCC3)n2)cc1 | inconclusive: 32.6 µM [activator, partial curve, poor fit] |  |
| NC(=O)c1ccc(NC(=O)COC(=O)c2ccc3ccccc3n2)cc1 |  | inactive: -2.87% |
| COC(=O)Cn1nnc2c(cnn2-c2ccccc2)c1=O |  | inactive: 8.22% |
| Cc1ccc(S(=O)(=O)NCc2ccccc2)cc1C(=O)NC1CCC(C)CC1 (stereo not drawn) | inconclusive: 6.51 µM [activator, partial curve, poor fit] |  |
| COc1ccc(Nc2ccnc(Nc3ccc(OC)cc3)n2)cc1 |  | inactive: -4.48% |
| Cc1sc2nc(SCC(=O)N3CCCC3)[nH]c(=O)c2c1C | inconclusive: 20.6 µM [activator, partial curve, poor fit] |  |
| O=C1[C@@H](c2ccccc2)[C@@H](c2ccccc2)N1c1cccnc1 |  | inactive: -0.676% |
| CC1CCN(Cc2nnnn2CCCC(=O)N(C)C(C)c2ccccn2)CC1 (stereo not drawn) |  | inactive: 13.4% |
| COc1ccc(CN2CCOCC2)cc1 | inconclusive: 20.6 µM [activator, partial curve, poor fit] |  |
| Cc1ccc(N2C(=O)c3ccccc3C2Nc2ccc(S(=O)(=O)N3CCOCC3)cc2)nc1 (stereo not drawn) | inconclusive: 23.1 µM [activator, partial curve, poor fit] |  |
| Cc1cc(C)nc(NC(=O)c2ccc([N+](=O)[O-])o2)n1 |  | inactive: -2.51% |
| CCOC(=O)Cn1c(-c2ccccc2)ccc(C#N)c1=O |  | inactive: -4.75% |
| O=C(CNC(=O)c1ccccc1F)N/N=C/c1cc(Br)ccc1OC(=O)/C=C/c1ccco1 | inconclusive: 29.1 µM [activator, single point] |  |
